# Laboratory results: the supplement of paper PMC12217912
# This is one part of the list. The full chains were built here from the parent and the listed change. Inactive controls read about 0.05.
# B1: TEV protease; numbered along this chain (parent)
# chain: MGESLFKGPRDYNPISSSICHLTNESDGHTTSLYGIGFGPFIITNKHLFRRNNGTLVVQSLHGVFKVKDTTTLQQHLVDGRDMIIIRMPKDFPPFPQKLKFREPQREERICLVTTNFQTKSMSSMVSDTSCTFPSGDGIFWKHWIQTKDGQCGSPLVSTRDGFIVGIHSASNFTNTNNYFTSVPKNFMELLTNQEAQQWVSGWRLNADSVLWGGHKVFMVKPEEPFQPVKEATQL
# Variants of: B1
# Test: raw area under fraction-flipped curve 0-4 h after induction (AUC4h, not background-subtracted), DNA-recorder readout of cleavage of the substrate (dimensionless); higher = more cleavage of the substrate by the protease variant
# Details: temperature: 34 °C; time window: 0-4 h after rhamnose induction
# Procedure: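 In vivo DNA recorder in E. coli TOP10(DE3) ΔrhaA at 34 °C. Each TEVp single-site mutant (parent TEVp 0) is paired with a single-site variant of the 7-mer TEVs (canonical ENLYFQ|S). The substrate sits between flexible linkers in a Bxb1-sfGFP-TEVs-SsrA fusion, so cleavage stabilises Bxb1 and speeds flipping of a recombination array, read by NGS. The value is the raw area under the fraction-flipped curve over 0-4 h after rhamnose induction (AUC4h), with ≥20 reads per time point. It is not background-subtracted; inactive controls average about 0.047.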
# 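Note: Bxb1 expression induced with 0.2% (w/v) L-rhamnose at OD600 near 0.5, cultures sampled hourly, flipped fraction per protease–substrate barcode pair counted by paired-end Illumina sequencing.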
Variant,area with substrate ENLYCQS,area with substrate ENLYDQS,area with substrate ENLYEQS,area with substrate ENLYIQS,area with substrate ENLYMQS,area with substrate ENLYNQS,area with substrate ENLYPQS,area with substrate ENLYTQS,area with substrate ENLYVQS,area with substrate ENLYWQS,area with substrate ENLYYQS,area with substrate ENLYGQS,area with substrate ENLYHQS,area with substrate ENLYQQS,area with substrate ENLYRQS,area with substrate ENLYSQS,area with substrate ENLYKQS,area with substrate ENLYLQS
K100Y,0.0883,0.0587,0.0688,0.0977,0.0777,0.0552,0.0775,0.0884,0.11,0.113,0.0639,,,,,,,
Q105I,0.0889,0.0648,0.0985,0.119,0.0888,0.0697,0.051,0.0881,0.123,0.046,0.0705,0.0664,0.0694,0.0401,0.0627,0.0777,,
R106E,0.0847,0.0728,,,0.082,0.0743,0.076,0.0538,0.114,0.084,0.0646,0.0712,0.0769,0.0651,0.046,0.103,,
N116Y,0.0868,,,0.134,,0.07,,0.0851,,0.0654,,0.0597,0.0666,,,,0.0941,
S121K,0.0836,0.0388,,0.131,0.0883,0.0794,0.0775,,,0.081,,0.065,0.075,0.076,0.0577,0.0973,,
M122V,0.101,,0.0629,0.105,0.0769,0.0625,0.0721,,0.0883,0.0867,,,0.0698,0.0604,0.106,,0.0114,
S130V,0.123,0.0652,0.0625,0.122,0.0811,0.0694,,,0.113,0.0721,0.0508,0.066,0.0637,,0.0444,0.0837,0.0534,
T132C,0.129,,0.058,0.108,,0.0701,0.0785,0.0942,0.119,0.0631,,0.0671,0.0753,,0.0844,,0.0745,
F133L,0.0916,0.0553,0.071,0.213,,,0.0788,,,,,0.0834,0.0519,,0.0481,,0.0494,0.0912
S135F,0.0775,0.0623,0.0574,0.0659,0.0547,0.0555,0.0687,,0.0651,0.0566,,0.0563,0.053,0.0648,0.0554,,0.0511,0.0537
S135K,0.0711,0.0599,0.0564,0.0757,0.0514,0.0566,0.0616,0.0602,0.0679,0.0653,0.0584,0.0303,0.0579,0.0604,,,0.0586,
G136C,0.0924,0.0626,0.0808,0.115,0.0874,0.0731,0.0775,0.0732,0.131,0.0776,,0.0585,0.0648,0.069,0.0634,0.081,0.0649,
D137F,0.0881,0.0597,0.056,0.0954,0.0647,,0.0701,0.0651,,,,0.0592,0.0602,0.0637,0.0689,0.066,0.0521,
T147F,0.0514,,,0.052,0.0637,0.0609,0.0642,,0.0597,0.0488,0.0308,,0.0371,,,0.0622,,0.0534
V157W,0.0542,0.0529,0.052,0.0656,0.0656,0.0561,0.058,,0.0829,0.0522,0.047,0.046,0.0536,0.0588,0.0548,,0.0325,
S171C,0.0703,0.0637,0.0645,0.0927,,,0.0614,0.0721,0.0766,0.0723,0.0643,,0.0602,0.056,,0.0674,,
F173E,0.102,0.0508,0.0588,0.149,,,0.0733,,0.117,,0.0433,,0.0615,,0.0843,,,0.0689
N175G,0.0924,0.0609,0.0539,,0.102,0.0399,0.0664,0.0827,0.131,0.0754,,0.0735,0.0497,0.058,0.0618,,0.0691,
Y179S,0.0587,0.0886,0.0578,,,0.056,0.107,,0.0505,0.0469,0.0447,,,0.0692,,0.0666,0.052,0.0583
V183A,0.0726,0.049,0.0828,0.1,0.0734,0.0545,0.0559,0.0472,0.0858,0.078,0.0715,0.0604,0.0704,0.0848,0.0568,,0.0578,
V183P,0.0754,0.059,0.0594,0.1,0.0758,0.0593,0.0562,0.0686,0.102,0.0705,0.0438,0.0689,0.0608,0.0597,0.0579,0.0895,0.0581,0.0537
P184F,0.0755,0.0562,,0.0939,,,0.0612,,0.0886,0.0543,,0.0628,0.0652,0.049,,0.0886,0.0684,
K185C,0.0891,,0.0695,,,0.0697,0.0813,0.0748,0.108,,0.0627,0.104,0.0741,0.0607,,0.0839,0.0616,
E189G,0.104,,0.0582,,0.0885,0.078,0.0708,0.0871,,0.0853,0.0743,,0.0535,0.0643,,0.0686,0.059,0.0772
E195A,0.0945,,0.0571,,0.0802,0.0646,,0.0731,0.102,0.0786,,0.0858,0.0639,0.0659,,0.0811,0.0686,0.0351
E195R,0.103,0.0762,0.0636,0.127,0.0811,0.066,0.0668,,0.0654,,,0.0846,0.0832,0.0604,0.0707,0.062,0.0693,0.0681
